The binders below were run against T1, CD3εδ complex protein (human; alpaca, UniProt P07766 23-126; P04234 22-105) (assay: ELISA, CD3 complex immobilized).
T1 construct: they are not part of the secreted protein; also called human CD3; CD386 complex protein
Protocol: Binding activities of the anti-TSPAN8/anti-CD3 bispecific antibodies BTE-0001 to BTE-0067 to CD3 were evaluated by the ELISA. ELISA was performed according to a conventional method. The […] complex protein obtained in Example 1-3 was immobilized on a plate. BTE-0001 to BTE-0067 were used as the test antibodies. As a secondary antibody, Goat anti-Human IgG Fc, Multi-Species SP ads-HRP (2014-05, available from SouthernBiotech) was used. TMB+Substrate-Chromogen (S1599, available from Dako) was used as the detection reagent. Infinite M200pro (available from Tecan) was used to measure the absorbance. The EC50 values were calculated using variable slope model (four parameters) in GraphPad Prism with the maximum value in the same plate fixed at the top and the minimum value in the blank in the same plate fixed at the bottom. Since BTE-0001 was always measured in each plate as a control, only the EC50 value of BTE-0001 was expressed as the average value of a plurality of plates.

UniProt P07766, sequence (P07766 23-126 limits assumed, stated change not applied, form in doubt, chain 1 of 2): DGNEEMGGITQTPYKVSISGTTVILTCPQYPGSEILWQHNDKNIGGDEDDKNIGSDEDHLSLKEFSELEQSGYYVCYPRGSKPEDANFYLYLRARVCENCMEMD
UniProt P07766, sequence (P04234 22-105 limits assumed, stated change not applied, form in doubt, chain 2 of 2, further chain): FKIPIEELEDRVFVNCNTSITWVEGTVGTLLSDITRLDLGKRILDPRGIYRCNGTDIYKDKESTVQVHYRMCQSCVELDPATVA

Row | Binder | EC50 [µg/mL]
1 | BTE-0036 (bispecific antibody) chain 1: QVQLVESGGGVVQPGGSLRLSCAASGFTFSSYGMHWVRQAPGKGLEWVAVIWYDGRNKYYADSVKGRFTISRDNSKNTLYLQMNSLRAEDTAVYYCTRDHSGSGSYYIDYWGQGTLVTVSSASTKGPSVFPLAPSSKSTSGGTAALGCLVKDYFPEPVTVSWNSGALTSGVHTFPAVLQSSGLYSLSSVVTVPSSSLGTQTYICNVNHKPSNTKVDKKVEPKSCDKTHTCPPCPAPEAAGGPSVFLFPPKPKDTLMISRTPEVTCVVVDVSHEDPEVKFNWYVDGVEVHNAKTKPREEQYGSTYRVVSVLTVLHQDWLNGKEYKCKVSNKALPAPIEKTISKAKGQPREPQVYTLPPSRDELTKNQVSLSCAVKGFYPSDIAVEWESNGQPENNYKTTPPVLDSDGSFFLVSKLTVDKSRWQQGNVFSCSVMHEALHNHYTQKSLSLSPGK chain 2: EIAMTQSPATLSVSPGERATLSCRASQSVSSNLAWYQQKPGQAPRLLIYGASTRATGLPARFSGSGSGTEFTLTISSLQSEDFAVYYCQQYNNFWTFGQGTKVEIKRTVAAPSVFIFPPSDEQLKSGTASVVCLLNNFYPREAKVQWKVDNALQSGNSQESVTEQDSKDSTYSLSSTLTLSKADYEKHKVYACEVTHQGLSSPVTKSFNRGEC chain 3: EVQLVESGGGLIQPGGSLRLSCAASGFTFNTYAMNWVRQAPGKGLEWVARIRSKYNNYATYYADSVKDRFTISRDDSKSTLYLQMNNLRAEDTAVYYCVRHGNFGNGYVSWFAYWGQGTLVTVSSGKPGSGKPGSGKPGSGKPGSQAVVTQEPSLTVSPGGTVTLTCRSSTGAVTTSNYANWVQQKPGQAPRGLIGGTNKRAPGTPARFSGSLLGDKAALTLSGAQPEDEAEYYCALWYSNLWVFGGGTKVTVL[human IgG1 Fc with C220S L234A L235A N297G T366W (EU numbers) cut from this listing] | 0.00431
2 | BTE-0039 (bispecific antibody) chain 1: QVQLVESGGGVVQPGGSLRLSCAASGFTFSSYGMHWVRQAPGKGLEWVAVIWYDGRNKYYADSVKGRFTISRDNSKNTLYLQMNSLRAEDTAVYYCTRDHSGSGSYYIDYWGQGTLVTVSSASTKGPSVFPLAPSSKSTSGGTAALGCLVKDYFPEPVTVSWNSGALTSGVHTFPAVLQSSGLYSLSSVVTVPSSSLGTQTYICNVNHKPSNTKVDKKVEPKSCDKTHTCPPCPAPEAAGGPSVFLFPPKPKDTLMISRTPEVTCVVVDVSHEDPEVKFNWYVDGVEVHNAKTKPREEQYGSTYRVVSVLTVLHQDWLNGKEYKCKVSNKALPAPIEKTISKAKGQPREPQVYTLPPSRDELTKNQVSLSCAVKGFYPSDIAVEWESNGQPENNYKTTPPVLDSDGSFFLVSKLTVDKSRWQQGNVFSCSVMHEALHNHYTQKSLSLSPGK chain 2: EIAMTQSPATLSVSPGERATLSCRASQSVSSNLAWYQQKPGQAPRLLIYGASTRATGLPARFSGSGSGTEFTLTISSLQSEDFAVYYCQQYNNFWTFGQGTKVEIKRTVAAPSVFIFPPSDEQLKSGTASVVCLLNNFYPREAKVQWKVDNALQSGNSQESVTEQDSKDSTYSLSSTLTLSKADYEKHKVYACEVTHQGLSSPVTKSFNRGEC chain 3: EVQLVESGGGLIQPGGSLRLSCAASGFTFNTYAMNWVRQAPGKGLEWVARIRSKYNNYATYYADSVKDRFTISRDDSKSTLYLQMNNLRAEDTAVYYCVRHGNFGNKYVSWFAYWGQGTLVTVSSGKPGSGKPGSGKPGSGKPGSQAVVTQEPSLTVSPGGTVTLTCRSSTGAVTTSNYANWVQQKPGQAPRGLIGGTNKRAPGTPARFSGSLLGDKAALTLSGAQPEDEAEYYCALWYSNLWVFGGGTKVTVL[human IgG1 Fc with C220S L234A L235A N297G T366W (EU numbers) cut from this listing] | 0.00835
3 | BTE-0037 (bispecific antibody) chain 1: QVQLVESGGGVVQPGGSLRLSCAASGFTFSSYGMHWVRQAPGKGLEWVAVIWYDGRNKYYADSVKGRFTISRDNSKNTLYLQMNSLRAEDTAVYYCTRDHSGSGSYYIDYWGQGTLVTVSSASTKGPSVFPLAPSSKSTSGGTAALGCLVKDYFPEPVTVSWNSGALTSGVHTFPAVLQSSGLYSLSSVVTVPSSSLGTQTYICNVNHKPSNTKVDKKVEPKSCDKTHTCPPCPAPEAAGGPSVFLFPPKPKDTLMISRTPEVTCVVVDVSHEDPEVKFNWYVDGVEVHNAKTKPREEQYGSTYRVVSVLTVLHQDWLNGKEYKCKVSNKALPAPIEKTISKAKGQPREPQVYTLPPSRDELTKNQVSLSCAVKGFYPSDIAVEWESNGQPENNYKTTPPVLDSDGSFFLVSKLTVDKSRWQQGNVFSCSVMHEALHNHYTQKSLSLSPGK chain 2: EIAMTQSPATLSVSPGERATLSCRASQSVSSNLAWYQQKPGQAPRLLIYGASTRATGLPARFSGSGSGTEFTLTISSLQSEDFAVYYCQQYNNFWTFGQGTKVEIKRTVAAPSVFIFPPSDEQLKSGTASVVCLLNNFYPREAKVQWKVDNALQSGNSQESVTEQDSKDSTYSLSSTLTLSKADYEKHKVYACEVTHQGLSSPVTKSFNRGEC chain 3: EVQLVESGGGLIQPGGSLRLSCAASGFTFNTYAMNWVRQAPGKGLEWVARIRSKYNNYATYYADSVKDRFTISRDDSKSTLYLQMNNLRAEDTAVYYCVRHGNFGNHYVSWFAYWGQGTLVTVSSGKPGSGKPGSGKPGSGKPGSQAVVTQEPSLTVSPGGTVTLTCRSSTGAVTTSNYANWVQQKPGQAPRGLIGGTNKRAPGTPARFSGSLLGDKAALTLSGAQPEDEAEYYCALWYSNLWVFGGGTKVTVL[human IgG1 Fc with C220S L234A L235A N297G T366W (EU numbers) cut from this listing] | 0.031
4 | BTE-0038 (bispecific antibody) chain 1: QVQLVESGGGVVQPGGSLRLSCAASGFTFSSYGMHWVRQAPGKGLEWVAVIWYDGRNKYYADSVKGRFTISRDNSKNTLYLQMNSLRAEDTAVYYCTRDHSGSGSYYIDYWGQGTLVTVSSASTKGPSVFPLAPSSKSTSGGTAALGCLVKDYFPEPVTVSWNSGALTSGVHTFPAVLQSSGLYSLSSVVTVPSSSLGTQTYICNVNHKPSNTKVDKKVEPKSCDKTHTCPPCPAPEAAGGPSVFLFPPKPKDTLMISRTPEVTCVVVDVSHEDPEVKFNWYVDGVEVHNAKTKPREEQYGSTYRVVSVLTVLHQDWLNGKEYKCKVSNKALPAPIEKTISKAKGQPREPQVYTLPPSRDELTKNQVSLSCAVKGFYPSDIAVEWESNGQPENNYKTTPPVLDSDGSFFLVSKLTVDKSRWQQGNVFSCSVMHEALHNHYTQKSLSLSPGK chain 2: EIAMTQSPATLSVSPGERATLSCRASQSVSSNLAWYQQKPGQAPRLLIYGASTRATGLPARFSGSGSGTEFTLTISSLQSEDFAVYYCQQYNNFWTFGQGTKVEIKRTVAAPSVFIFPPSDEQLKSGTASVVCLLNNFYPREAKVQWKVDNALQSGNSQESVTEQDSKDSTYSLSSTLTLSKADYEKHKVYACEVTHQGLSSPVTKSFNRGEC chain 3: EVQLVESGGGLIQPGGSLRLSCAASGFTFNTYAMNWVRQAPGKGLEWVARIRSKYNNYATYYADSVKDRFTISRDDSKSTLYLQMNNLRAEDTAVYYCVRHGNFGNIYVSWFAYWGQGTLVTVSSGKPGSGKPGSGKPGSGKPGSQAVVTQEPSLTVSPGGTVTLTCRSSTGAVTTSNYANWVQQKPGQAPRGLIGGTNKRAPGTPARFSGSLLGDKAALTLSGAQPEDEAEYYCALWYSNLWVFGGGTKVTVL[human IgG1 Fc with C220S L234A L235A N297G T366W (EU numbers) cut from this listing] | 0.438

Source: patent US20250304706A1 (Astellas, published 2025)
